Experiments:
[1] = biological target: T1, Recombinant human BMP-2 (bone morphogenetic protein 2) (human, UniProt P12643 283-396, biotinylated with Sulfo-NHS-Biotin (bBMP-2) in flow cytometry and BLI); test: yeast surface display, flow cytometry, bBMP-2 0.5-1000 nM, nonlinear regression
T1 construct: Bought protein; also called bBMP-2; bBMP
T1 sequence (looked up): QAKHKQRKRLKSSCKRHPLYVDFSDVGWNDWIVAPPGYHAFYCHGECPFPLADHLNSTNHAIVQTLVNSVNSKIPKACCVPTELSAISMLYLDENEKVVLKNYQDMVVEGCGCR

[2] = biological target: T2, Recombinant VEGF165 (vascular endothelial growth factor) (UniProt P15692-4 27-191, biotinylated (bVEGF) in flow cytometry and BLI); test: flow cytometry, yeast-displayed affibody with 1000 nM biotinylated target
T2 construct: also called VEGF-A (165); bVEGF
T2 sequence (looked up): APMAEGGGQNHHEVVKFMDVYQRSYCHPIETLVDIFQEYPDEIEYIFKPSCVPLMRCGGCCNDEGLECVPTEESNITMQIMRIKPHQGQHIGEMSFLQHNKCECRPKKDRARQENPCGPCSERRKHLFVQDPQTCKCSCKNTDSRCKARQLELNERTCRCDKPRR

[3] = biological target: T3, Granulocyte-macrophage colony-stimulating factor (GM-CSF), biotinylated (UniProt P04141 18-144, biotinylated (bGM-CSF)); test: as above
T3 construct: also called bGM-CSF

[4] = biological target: T2, Recombinant VEGF165 (vascular …); test: biolayer interferometry, 25 nM bVEGF on streptavidin probes, soluble affibody 15.625-125 nM
[5] = biological target: T3, Granulocyte-macrophage …; test: biolayer interferometry, 25 nM bGM-CSF on streptavidin probes, soluble affibody 15.625-125 nM
[6] = biological target: T2, Recombinant VEGF165 (vascular …); test: ratio of KD values; method not given
[7] = biological target: T4, Recombinant FGF-2 (fibroblast growth factor 2) (UniProt P09038 143-288, limits assumed, biotinylated (bFGF-2) in flow cytometry and BLI); test: flow cytometry, yeast-displayed affibody with biotinylated target
T4 construct: also called bFGF-2; biotinylated FGF-2

[8] = biological target: T5, Recombinant human PDGF-BB (platelet-derived growth factor) (human, UniProt P01127 82-190, biotinylated (bPDGF) in flow cytometry and off-target BLI; not biotinylated in the Ni-NTA BLI); test: as above
T5 construct: also called rhPDGF-BB; bPDGF

[9] = biological target: T2, Recombinant VEGF165 (vascular …); test: yeast surface display, flow cytometry with bVEGF
[10] = biological target: T2, Recombinant VEGF165 (vascular …); test: method not stated (yeast surface display or BLI per paragraph 316); method not stated (yeast display or BLI per paragraph 316); yeast display with bVEGF165 in paragraph 322 gives 861±255 nM
[11] = biological target: T2, Recombinant VEGF165 (vascular …); test: yeast surface display, flow cytometry, bVEGF165 0.02-10 µM
[12] = biological target: T2, Recombinant VEGF165 (vascular …); test: method not stated in Table 1 (yeast surface display or BLI per paragraph 316); Table 1 value; method not stated (yeast surface display or BLI)
[13] = biological target: T2, Recombinant VEGF165 (vascular …); test: BLI, 25 nM bVEGF on streptavidin probes, soluble affibody 31.25-1000 nM, global fit
[14] = biological target: T5, Recombinant human PDGF-BB …; test: biolayer interferometry; 25 nM bPDGF on streptavidin probes, 1000 nM soluble affibody as analyte
[15] = biological target: T5, Recombinant human PDGF-BB …; test: BLI, 200 nM His-tagged affibody on Ni-NTA probes, PDGF 1.563-50 nM, global fit
[16] = biological target: T2, Recombinant VEGF165 (vascular …); test: biolayer interferometry, 25 nM bVEGF on streptavidin probes, 1000 nM soluble affibody
[17] = biological target: T5, Recombinant human PDGF-BB …; test: BLI, affibody on Ni-NTA probes, soluble PDGF (method not stated in Table 1)
[18] = biological target: T5, Recombinant human PDGF-BB …; test: BLI
[19] = biological target: T3, Granulocyte-macrophage …; test: biolayer interferometry, 25 nM bGM-CSF on streptavidin probes, soluble affibody 15.625-125 nM; remark: listed apart in the source
[20] = biological target: T2, Recombinant VEGF165 (vascular …); test: biolayer interferometry, 25 nM bVEGF on streptavidin probes, soluble affibody 15.625-125 nM; remark: listed apart in the source
[21] = biological target: T5, Recombinant human PDGF-BB …; test: yeast surface display, flow cytometry, bPDGF-BB 0.016-8.4 µM

T5 sequence (P01127 82-190): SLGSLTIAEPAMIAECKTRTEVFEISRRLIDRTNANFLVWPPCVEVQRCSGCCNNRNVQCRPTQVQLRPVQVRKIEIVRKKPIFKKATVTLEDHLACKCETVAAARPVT
T3 sequence (P04141 18-144 limits assumed): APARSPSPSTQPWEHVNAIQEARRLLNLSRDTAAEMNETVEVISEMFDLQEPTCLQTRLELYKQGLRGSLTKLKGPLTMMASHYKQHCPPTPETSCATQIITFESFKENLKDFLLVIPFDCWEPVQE
T4 sequence (P09038 143-288 limits assumed): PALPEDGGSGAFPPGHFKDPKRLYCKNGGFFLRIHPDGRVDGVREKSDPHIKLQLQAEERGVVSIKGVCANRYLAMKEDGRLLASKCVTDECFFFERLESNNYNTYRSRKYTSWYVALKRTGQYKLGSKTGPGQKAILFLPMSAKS

B1: High Affinity BMP-2 affibody A1-2 (SEQ ID NO: 1), yeast-displayed (designed binder)
chain: AEAKYYKEVSSAATQIRYLPNLTAFQKAAFYAALLDDPSQSSELLSEAKKLNDSQAPK
- Kd [1]: 1.95 nM
- binding result [2]: no binding (tested: 1000 nM)
- binding result [3]: no binding (tested: 1000 nM)

B2: Low Affinity BMP-2 Affibody, soluble, with hexahistidine tag and C-terminal cysteine (SEQ ID NO: 73) (designed binder)
chain: AEAKYYKEGDNAYNVIYGLPNLTRPQRLAFIVALFNDPSQSSELLSEAKKLNDSQAPKHHHHHHC
notes: E. coli-expressed; also called B4-1
- binding result [4]: no binding (tested: 125 nM)
- binding result [5]: no binding (tested: 125 nM)

B3: VEGF affibody TM2 (High Affinity) (SEQ ID NO: 20), yeast-displayed (designed binder)
chain: AEAKYYKEGATAYRVIEYLPNLTGAQKAAFIDALYNDPSQSSELLSEAKKLNDSQAPK
notes: also called VEGF High Affibody
- fold greater affinity than the low-affinity VEGF affibody (SEQ ID NO: 78) [6]: ~100 fold
- fold greater affinity than the medium-affinity VEGF affibody (SEQ ID NO: 21) [6]: ~5 fold
- binding result [7]: no binding
- binding result [8]: no binding
- Kd [9]: 58.3 nM

B4: VEGF affibody BR2 (Low Affinity) (SEQ ID NO: 22), yeast-displayed (designed binder)
chain: AEAKYNKEWYDAVFVIGSLPNLTEDQKDAFSDALVDDPSQSSELLSEAKKLNDSQAPK
notes: also called original VEGF affibody; VEGF-specific affibody
- Kd [10]: 6470 nM
- Kd [11]: 861 nM
- binding result [7]: no binding
- binding result [8]: no binding

B5: VEGF Affibody-D28A (SEQ ID NO: 77), soluble with hexahistidine tag and C-terminal cysteine (designed binder)
chain: AEAKYNKEWYDAVFVIGSLPNLTEDQKAAFSDALVDDPSQSSELLSEAKKLNDSQAPKHHHHHHC
notes: soluble, expressed in E. coli
- Kd [12]: 1840 nM
- Kd [13]: 455 nM
- koff [13]: 0.00418 s⁻¹
- kon [13]: 9190 M⁻¹ s⁻¹
- binding result [14]: no binding (tested: 1000 nM)

B6: PDGF Affibody-13 (SEQ ID NO: 59), soluble with hexahistidine tag and C-terminal cysteine (designed binder)
chain: AEAKYAFELWEAQHEIQQLPNLRPDQIAAFAMALYDDPSQSSELLSEAKKLNDSQAPKHHHHHHC
notes: soluble, expressed in E. coli; also called 0057; 0057/Affibody-13
- Kd [15]: 77.4 nM
- koff [15]: 0.0182 s⁻¹
- kon [15]: 237000 M⁻¹ s⁻¹
- binding result [16]: no binding (tested: 1000 nM)
- Kd [17]: 77.3 nM
- fold higher equilibrium dissociation constant than PDGF Affibody-16 [18]: 10 fold

B7: High Affinity BMP-2 Affibody, soluble, with hexahistidine tag and C-terminal cysteine (SEQ ID NO: 71) (designed binder)
chain: AEAKYYKEVSSAATQIRYLPNLTAFQKAAFYAALLDDPSQSSELLSEAKKLNDSQAPKHHHHHHC
notes: E. coli-expressed; also called A1-2
- binding result [19]: no binding (tested: 125 nM)
- binding result [20]: no binding (tested: 125 nM)

B8: PDGF affibody BM_6 (Medium) (SEQ ID NO: 60), yeast-displayed (designed binder)
chain: AEAKYAKELDDASVEIWDLPNLTPCQKVAFFVALYDDPSQSSELLSEAKKLNDSQAPK
notes: also called original PDGF affibody; PDGF-specific affibody
- Kd [21]: 855 nM

— patent publication US20250382361A1 (UNIVERSITY OF OREGON, published 2025)
